Laboratory results: the supplement of paper PMC4166925
± gives the standard deviation of the averaged measurements. Over roughly 33,000 sequences, “E-score (dimensionless, -0.5 to 0.5)” has its median near -0.046; the highest 2% begin near 0.36. Some of the results follow.

tested on: T1, SpTbr T-box DNA-binding domain (GST fusion); experiment: PBM E-score of 8-mer (E-score (dimensionless, -0.5 to 0.5)); Tbr is Tbrain of the sea star Patiria miniata (Pm) or the sea urchin Strongylocentrotus purpuratus (Sp); higher = stronger binding preference; most listed sequences are background and not binding sites; conditions: the construct has about 5 more residues each side
T1 sequence: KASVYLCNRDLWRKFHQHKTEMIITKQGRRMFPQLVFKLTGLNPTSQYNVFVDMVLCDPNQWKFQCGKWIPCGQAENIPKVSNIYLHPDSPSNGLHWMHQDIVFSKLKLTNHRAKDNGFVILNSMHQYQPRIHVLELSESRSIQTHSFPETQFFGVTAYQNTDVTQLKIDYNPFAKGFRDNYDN
Experimental: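 Universal protein-binding microarray (Agilent AMADID 016060, 60-bp probes with a 35-bp variable region) incubated with 200 nM GST-fused Strongylocentrotus purpuratus Tbr T-box DNA-binding domain (residues 362-554) in PBS pH 7.5. Scored for every ungapped 8-mer (given with its reverse complement) as E-score (range -0.5 to 0.5; >0.45 counts as bound) and Z-score of median probe intensity. Two replicate arrays (datasets 1 and 2).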
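Further: protein at 200 nM in PBS on universal double-stranded arrays.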

| Sequence | PBM E-score of 8-mer |
| --- | --- |
| CCCTGGGA | -0.167 ± 0.058 |
| GCCAGCCA | -0.0864 ± 0.033 |
| ATGTACCA | -0.258 ± 0.021 |
| AGAAACCC | 0.057 ± 0.023 |
| TAATGTAA | -0.212 ± 0.047 |
| AGCAGCCA | -0.101 ± 0.06 |
| GACTTGAA | -0.181 ± 0.041 |
| CCCTGAAG | -0.15 ± 0.043 |
| GCTTACAA | -0.0307 ± 0.02 |
| AGCCTCGA | -0.0749 ± 0.047 |
| AAAGGGAT | -0.294 ± 0.0053 |
| AGAAAGCC | -0.211 ± 0.049 |
| ACCCGCGG | 0.164 ± 0.025 |
| CTCTCCTC | -0.139 ± 0.15 |
| CGTTCTAC | -0.0107 ± 0.043 |
| CAAGAAAA | -0.122 ± 0.065 |
| TACCCGCA | -0.0672 ± 0.0097 |
| CAATGGAG | -0.149 ± 0.047 |
| AGTCACCG | -0.148 ± 0.03 |
| CTCGGGCA | -0.181 ± 0.056 |
| CTTAGTGA | 0.0752 ± 0.0019 |
| AGACCATA | -0.113 ± 0.002 |

| Sequence | PBM E-score of 8-mer |
| --- | --- |
| CGAGCCGA | -0.0664 ± 0.0047 |
| ATGACTCC | -0.172 ± 0.072 |
| AAGGGCCG | -0.27 ± 0.034 |
| GGTACCCA | 0.0442 ± 0.038 |
| AACATGCC | -0.172 ± 0.016 |
| CCGCTACA | 0.0727 ± 0.039 |
| ATTACCAA | 0.0168 ± 0.07 |
| GCAAGTCC | 0.0334 ± 0.02 |
| ATCTGATC | -0.0836 ± 0.057 |
| GGTGAATA | 0.13 ± 0.016 |
| AAACAGAC | -0.0932 ± 0.079 |
| ACGGACTA | 0.0103 ± 0.061 |
| CCGTCGCC | 0.247 ± 0.078 |
| CGCTTAAG | 0.04 ± 0.03 |
| TAACCGAA | -0.212 ± 0.034 |
| ATCAAAAT | -0.192 ± 0.028 |
| GGTAGGAA | -0.287 ± 0.024 |
| AACGTTCA | 0.0606 ± 0.0016 |
| AGGGCATC | -0.0335 ± 0.013 |
| CATGCGTA | -0.199 ± 0.0048 |
| CCAAGAAA | -0.0546 ± 0.07 |
| TGCACGCA | -0.0378 ± 0.0076 |

| Sequence | PBM E-score of 8-mer |
| --- | --- |
| AATACTAA | -0.0398 ± 0.024 |
| GGAACCAC | -0.206 ± 0.0052 |
| CATCCAGG | 0.006 ± 0.007 |
| ATATACTC | -0.215 ± 0.0023 |
| CACTATAA | -0.0315 ± 0.037 |
| AGCGTATA | -0.0764 ± 0.00086 |
| AAGCCGGC | -0.125 ± 0.091 |
| CCAAGGTC | -0.249 ± 0.031 |
| GCGGTCTA | -0.21 ± 0.057 |
| AGCAATTG | -0.109 ± 0.032 |
| ACGCAGCT | 0.086 ± 0.0018 |
| GTGACCTA | 0.0756 ± 0.073 |
| AAATCCGA | -0.16 ± 0.08 |
| CGTGGTAG | 0.0558 ± 0.012 |
| CGCTGATC | 0.132 ± 0.11 |
| CCTTGTAC | -0.0571 ± 0.037 |
| CCCCATAC | -0.141 ± 0.035 |
| AGCTCAGG | -0.176 ± 0.0068 |
| AGTTTTGG | -0.158 ± 0.012 |
| CCAACGGA | 0.107 ± 0.0063 |
| AACGATCT | 0.0231 ± 0.0018 |
| ATACAGGA | -0.176 ± 0.0052 |

| Sequence | PBM E-score of 8-mer |
| --- | --- |
| GCTACTCA | -0.0431 ± 0.035 |
| AGCGCACT | -0.0424 ± 0.0093 |
| ACCATCGG | -0.0356 ± 0.079 |
| ACCGCGTA | -0.0401 ± 0.0057 |
| CTCAACTC | -0.174 ± 0.013 |
| AGAAACTC | 0.0439 ± 0.00099 |
| CCGGTCAC | 0.229 ± 0.016 |
| AGGGACCA | -0.237 ± 0.064 |
| GCTCCGCC | -0.183 ± 0.058 |
| AGTCTACC | -0.125 ± 0.026 |
| ACTGTTAG | 0.195 ± 0.048 |
| ACGTTCGG | 0.0713 ± 0.038 |
| GCACGAGC | -0.0218 ± 0.058 |
| GCATAGAC | -0.117 ± 0.083 |
| AGAAACAT | -0.207 ± 0.026 |
| GACACCCC | 0.405 ± 0.026 |
| AGGACAGC | -0.18 ± 0.027 |
| CACTAACC | 0.15 ± 0.026 |
| ACAAGTGA | 0.243 ± 0.07 |
| CGAAGTGA | 0.362 ± 0.0065 |
